The text below walks through data of the supplement of paper PMC4604168 (melanoma cell lines).

SMILES strings stand for the structures. This is one part of the list. Most values come without repeats; read them as rough.
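Also: cell number obtained by counting DAPI-stained nuclei in high-throughput microscope images with image analysis software, screen run in 1,536-well plates.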

For the assay, the system named is SkMel5. Put plainly: cell count relative to DMSO control; melanoma cells; higher = more viable cells. To be noted: library dose: low library concentration; 72 h.
In turn, `O=C(CCCCCCC(=O)Nc1ccccc1)NO` [vorinostat] + Cn1cncc1[C@@](N)(c1ccc(Cl)cc1)c1ccc2c(c1)c(-c1cccc(Cl)c1)cc(=O)n2C [tipifarnib] (first compound 0.08 µM, partner dose 0.01 µM) gave a cell count of 85.8%.
The figure for `O=C(CCCCCCC(=O)Nc1ccccc1)NO` [vorinostat] + O=C(Nc1cccc(Cl)c1)Nc1ncc(CCNc2ncnc3ccsc23)s1 [SNS314] (first compound 0.08 µM, partner dose 0.0008 µM) is 92.3%.
As for `Nc1cccc2c1CN(C1CCC(=O)NC1=O)C2=O` (centres undefined) [lenalidomide] + Cn1cncc1[C@@](N)(c1ccc(Cl)cc1)c1ccc2c(c1)c(-c1cccc(Cl)c1)cc(=O)n2C [tipifarnib] (first compound 1 µM, partner dose 0.01 µM), the figure is 98%.
As for `COCC[n+]1c2c(n(Cc3cnccn3)c1C)C(=O)c1ccccc1C2=O` + CC(C)(C)c1cnc(CSc2cnc(NC(=O)C3CCNCC3)s2)o1 [SNS-032] (first compound 0.0004 µM, partner dose 0.01 µM), the figure is 68.4%; as for `OCc1c[nH]c2ccccc12` [Indole-3-carbinol] + COC(=O)c1sccc1S(=O)(=O)Nc1ccc(Nc2ccccc2)cc1OC [GSK0660] (first compound 0.8 µM, partner dose 1 µM), 109%.
The compound `COCC[n+]1c2c(n(Cc3cnccn3)c1C)C(=O)c1ccccc1C2=O` + CN(NC(=O)CC(=O)NN(C)C(=S)c1ccccc1)C(=S)c1ccccc1 [STA4783] (first compound 0.0004 µM, partner dose 0.006 µM) came in with a cell count of 66.5%.
The figure for `O=C(CCCCCCC(=O)Nc1ccccc1)NO` [vorinostat] + CO[C@@H]1[C@H](N(C)C(=O)c2ccccc2)C[C@H]2O[C@]1(C)n1c3ccccc3c3c4c(c5c6ccccc6n2c5c31)C(=O)NC4 [Midostaurin] (first compound 0.08 µM, partner dose 0.08 µM) is 70.2%; for `OCc1c[nH]c2ccccc12` [Indole-3-carbinol] + O=S(=O)(c1ccccc1)N(CC(F)(F)F)c1ccc(C(O)(C(F)(F)F)C(F)(F)F)cc1 [T0901317] (first compound 0.8 µM, partner dose 1.4 µM) it is 102%; for `C#Cc1cccc(Nc2ncnc3cc(OCCOC)c(OCCOC)cc23)c1` [erlotinib] + CC(C)(C)c1cnc(CSc2cnc(NC(=O)C3CCNCC3)s2)o1 [SNS-032] (first compound 0.8 µM, partner dose 0.01 µM) it is 117%.
The figure for `OCc1c[nH]c2ccccc12` [Indole-3-carbinol] + Oc1cc(-c2nc(-c3ccccc3)[nH]c2-c2ccncc2)ccc1Cl [L779450] (first compound 0.8 µM, partner dose 0.2 µM) is 95.7%; for `Clc1ccc(Nc2nnc(Cc3ccncc3)c3ccccc23)cc1` [vatalanib] + O=C1NC(=O)/C(=C/c2ccc(-c3ccc(F)cc3O)o2)S1 [AS252424] (first compound 2 µM, partner dose 1 µM) it is 85.1%; for `C#Cc1cccc(Nc2ncnc3cc(OCCOC)c(OCCOC)cc23)c1` [erlotinib] + CN(C)S(=O)(=O)c1ccc2c(c1)/C(=C/c1cc3c([nH]1)CCCC3)C(=O)N2 [SU6656] (first compound 0.8 µM, partner dose 0.4 µM) it is 108%.
The compound `Clc1ccc(Nc2nnc(Cc3ccncc3)c3ccccc23)cc1` [vatalanib] + O=C(Nc1cccc(Cl)c1)Nc1ncc(CCNc2ncnc3ccsc23)s1 [SNS314] (first compound 2 µM, partner dose 0.0008 µM) returned a cell count of 94.7%.
As for `C#Cc1cccc(Nc2ncnc3cc(OCCOC)c(OCCOC)cc23)c1` [erlotinib] + Cc1ccc(NC(=O)c2cccc(N(C)C)c2)cc1NC(=O)c1ccc(O)cc1 [ZM336372] (first compound 0.8 µM, partner dose 2 µM), the figure is 94%.
In turn, `Clc1ccc(Nc2nnc(Cc3ccncc3)c3ccccc23)cc1` [vatalanib] + CC1(C)NC(=O)N(c2ccc([N+](=O)[O-])c(C(F)(F)F)c2)C1=O [nilutamide] (first compound 2 µM, partner dose 1 µM) yielded a cell count of 73.5%.
The compound `Clc1ccc(Nc2nnc(Cc3ccncc3)c3ccccc23)cc1` [vatalanib] + Cc1ccc(NC(=O)c2cccc(N(C)C)c2)cc1NC(=O)c1ccc(O)cc1 [ZM336372] (first compound 2 µM, partner dose 2 µM) gave a cell count of 91.2%.
As for `C#Cc1cccc(Nc2ncnc3cc(OCCOC)c(OCCOC)cc23)c1` [erlotinib] + COc1cc2c(Oc3ccc4[nH]c(C)cc4c3F)ncnc2cc1OCCCN1CCCC1 [cediranib] (first compound 0.8 µM, partner dose 0.4 µM), the figure is 101%; as for `Clc1ccc(Nc2nnc(Cc3ccncc3)c3ccccc23)cc1` [vatalanib] + CCc1ccc(CCOc2ccc(CC3SC(=O)NC3=O)cc2)nc1 [pioglitazone] (first compound 2 µM, partner dose 2 µM), 86.6%.
The compound `O=C(CCCCCCC(=O)Nc1ccccc1)NO` [vorinostat] + COc1cc2c(Oc3ccc4[nH]c(C)cc4c3F)ncnc2cc1OCCCN1CCCC1 [cediranib] (first compound 0.08 µM, partner dose 0.4 µM) yielded a cell count of 98.8%.
The figure for `Nc1cccc2c1CN(C1CCC(=O)NC1=O)C2=O` (centres undefined) [lenalidomide] + O=C(Nc1cccc(Cl)c1)Nc1ncc(CCNc2ncnc3ccsc23)s1 [SNS314] (first compound 1 µM, partner dose 0.0008 µM) is 99.8%; for `Nc1cccc2c1CN(C1CCC(=O)NC1=O)C2=O` (centres undefined) [lenalidomide] + O=C(CCCCCCC(=O)Nc1ccccc1)NO [vorinostat] (first compound 1 µM, partner dose 0.08 µM) it is 85.6%; for `COCC[n+]1c2c(n(Cc3cnccn3)c1C)C(=O)c1ccccc1C2=O` + COc1cc(Nc2ncc(F)c(Nc3ccc4c(n3)NC(=O)C(C)(C)O4)n2)cc(OC)c1OC [Tamatinib] (first compound 0.0004 µM, partner dose 0.4 µM) it is 62.3%.
As for `O=C(CCCCCCC(=O)Nc1ccccc1)NO` [vorinostat] + O=C(O)c1ccc(-c2c[nH]c3ncc(-c4ccccc4)cc23)cc1C1CCCC1 [GSK650394] (first compound 0.08 µM, partner dose 0.16 µM), the figure is 105%; as for `Clc1ccc(Nc2nnc(Cc3ccncc3)c3ccccc23)cc1` [vatalanib] + O=C(O)C(=O)Nc1sc2c(c1C(=O)O)CCNC2 [TCS401] (first compound 2 µM, partner dose 1.66667 µM), 77.1%; as for `Clc1ccc(Nc2nnc(Cc3ccncc3)c3ccccc23)cc1` [vatalanib] + COc1ccc(COc2ccc(Cc3cnc(N)nc3N)cc2OC)cc1 [GW2580] (first compound 2 µM, partner dose 1 µM), 81.2%.
As for `Clc1ccc(Nc2nnc(Cc3ccncc3)c3ccccc23)cc1` [vatalanib] + Oc1cc(-c2nc(-c3ccccc3)[nH]c2-c2ccncc2)ccc1Cl [L779450] (first compound 2 µM, partner dose 0.2 µM), the figure is 96.5%.
Compound `Clc1ccc(Nc2nnc(Cc3ccncc3)c3ccccc23)cc1` [vatalanib] + O=C(O)c1ccc(-c2c[nH]c3ncc(-c4ccccc4)cc23)cc1C1CCCC1 [GSK650394] (first compound 2 µM, partner dose 0.16 µM) registered a cell count of 83.9%.
As for `OCc1c[nH]c2ccccc12` [Indole-3-carbinol] + Cc1cc([N+](=O)[O-])ccc1NS(=O)(=O)c1cc(Cl)ccc1Cl [FH535] (first compound 0.8 µM, partner dose 1 µM), the figure is 83.7%; as for `Clc1ccc(Nc2nnc(Cc3ccncc3)c3ccccc23)cc1` [vatalanib] + CC(C)(C)c1cnc(CSc2cnc(NC(=O)C3CCNCC3)s2)o1 [SNS-032] (first compound 2 µM, partner dose 0.01 µM), 94.6%.
As for `O=C(CCCCCCC(=O)Nc1ccccc1)NO` [vorinostat] + C[C@@H]1CCN(C(=O)CC#N)C[C@@H]1N(C)c1ncnc2[nH]ccc12 [CP690550] (first compound 0.08 µM, partner dose 1 µM), the figure is 101%; as for `Cn1c(Nc2ccc(C(F)(F)F)cc2)nc2cc(Oc3ccnc(-c4ncc(C(F)(F)F)[nH]4)c3)ccc21` + O=C(O)c1ccc(-c2c[nH]c3ncc(-c4ccccc4)cc23)cc1C1CCCC1 [GSK650394] (first compound 0.08 µM, partner dose 0.16 µM), 68.4%.
As for `OCc1c[nH]c2ccccc12` [Indole-3-carbinol] + CCN(CC)CCCCNc1ncc2cc(-c3cc(OC)cc(OC)c3)c(NC(=O)NC(C)(C)C)nc2n1 [PD173074] (first compound 0.8 µM, partner dose 0.1 µM), the figure is 97.7%.
Consider `Clc1ccc(Nc2nnc(Cc3ccncc3)c3ccccc23)cc1` [vatalanib] + O=C(Nc1ccccc1)c1cc([N+](=O)[O-])ccc1Cl [GW9662] (first compound 2 µM, partner dose 2 µM), for which the cell count stood at 94%.
As for `Cn1c(Nc2ccc(C(F)(F)F)cc2)nc2cc(Oc3ccnc(-c4ncc(C(F)(F)F)[nH]4)c3)ccc21` + C=CCn1c(=O)c2cnc(Nc3ccc(N4CCN(C)CC4)cc3)nc2n1-c1cccc(C(C)(C)O)n1 [MK1775] (first compound 0.08 µM, partner dose 0.02 µM), the figure is 54.8%.
